Source: the supplement of paper PMC11417369
± gives the standard deviation of the averaged measurements. Some of the results follow.

System: PfAP2-I AP2 domain 3 (GST-tagged)
Assay: gcPBM binding intensity (ln(normalized median fluorescence intensity)); higher = stronger DNA binding
Summary of the method: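 An Agilent 4 × 180k array of primer-extended double-stranded 36-bp intergenic genomic probes, with negative controls, was incubated for 1 h with GST-tagged P. falciparum DNA-binding domains expressed in E. coli. Alexa488 anti-GST antibody detected bound protein, scanned at 488 nm. Binding intensity is the highest Masliner-normalised natural-log median intensity across replicate spots of either probe orientation.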

Sequence	gcPBM binding intensity (ln)
TTTTTTTGTTTTGTTTTTTTTTTTTTTTTTTTTTTG [CACACA_negctrl_site570]	7.39 ± 0.58
TGCTTAATTTACGTGGGTACATACACCTCATATATT [XGTACX_site3093]	8.28 ± 0.82
ATATATGTATATTTTTGTACGCATAAATATATTTTT [XGTACX_site827]	7.8 ± 0.21
TTTTTATACAATTAGACACACACAAAAAGTATATAT [CACACA_site8272]	7.78 ± 0.64
TTAATACATATATATATATTATATATATATATATAT [TGCATGCA_negctrl_site177]	9.12 ± 0.43
ATTATTTTAATTTTAATTTTTTTTTTTTTTTGTTTT [CACACA_negctrl_site1063]	7.34 ± 0.49
TATTTTTCCATAAAAATTTATATAGAAACAAATAAT [GTGCAC_negctrl_site103]	7.75 ± 0.46
CCCTTTTATTAAAATTCACACACATAAATTTTTATA [CACACA_site8611]	8.06 ± 0.41
TACTATAAGATATATACACACAAGAAATACAAAACG [CACACA_site6764]	8.13 ± 0.76
GAATATGAATATTTGCGTACTTATATAACTGTTCTA [XGTACX_site883]	7.69 ± 0.49
AAAAAAAATAATAATACACACAATATGATATGTACA [CACACA_site850]	7.58 ± 0.35
ATACACATTCGAAATAACAAAAAAATACATACACAT [GTGCAC_negctrl_site628]	8.02 ± 0.66
ATGATTATTTTAAAAAGTACTAATTATTATTTTTTT [XGTACX_site7242]	7.6 ± 0.35
ATGATAGTATGTATGAGTACGAAAAAAAAAAATTAA [XGTACX_site32]	7.77 ± 0.64
ATATATATATATATTGTACACACATTTATGCATATA [CACACA_site9055]	9.4 ± 0.18
TGTGGGAATAACCACACACACACACCCATATATATA [CACACA_site5876]	8.29 ± 0.71
AAATGCAAATGATGATGTACATACAAAAATTAAATT [XGTACX_site5323]	8.15 ± 0.64
ATATATATATATATATGTACATATCACTTTAAATAT [XGTACX_site3859]	9.04 ± 0.24
TTTTCTTAAAAAATCAAACACACATATATATATACA [CACACA_site2297]	7.6 ± 0.51
AAAATGTATATATAAACATGCACACGTGGTTGTATA [TGCATGCA_site847]	8.4 ± 0.54
TATCGTTATATAATATGTACATATAAAATTTAAATT [XGTACX_site1887]	7.99 ± 0.5
TCTTAAATTTCTTTATGTACATAATTAATATATTTA [XGTACX_site4456]	7.72 ± 0.35

Sequence	gcPBM binding intensity (ln)
TATATATTATGACCACCACACACCTATACGCATAAC [CACACA_site2447]	8.3 ± 0.45
AAAAATATATAAAGAAAAAGAATATAATATAAAATA [GTGCAC_negctrl_site208]	7.66 ± 0.49
ATTGTAGAATTTAATAGTACTCACGAATAAAATAAA [XGTACX_site6280]	7.7 ± 0.42
AAAAAAAAAGTATTATGTACATAAAAATAAAAAAAT [XGTACX_site4166]	7.87 ± 0.66
GTTTATGTTAAACCATGTACTTAATATTTTATTCTT [XGTACX_site3761]	7.67 ± 0.67
TATTAAAATATGTCAGTTCTTAAAAAGTTGATGAGT [GTGCAC_negctrl_site77]	7.63 ± 0.58
TATGATTCATAATAGTGTACGTAAAAATTGACTAGA [XGTACX_site5376]	8.22 ± 0.26
TATAATATGAACAGTACACACAAAATAAATTCGTAT [CACACA_site3586]	7.81 ± 0.51
ATTCAAAATAATAGAATTGTTAAAGTTGTAAATTGA [CACACA_negctrl_site727]	7.53 ± 0.36
AAAAATAAATATACATGTACTTAAAATAATCGAATA [XGTACX_site8432]	7.67 ± 0.39
TATATTTTTATATTTTGTACATATAGTAAATATAAA [XGTACX_site4768]	7.59 ± 0.34
CTCAAACAATATTATATAATAAAGTACATATATATT [CACACA_negctrl_site446]	7.66 ± 0.42
GAACAGAAAAAGAATAGTACATATATATATATATAT [XGTACX_site3700]	9.35 ± 0.55
ACGTATCAAAAAATTTGTACATATATATATATATAT [XGTACX_site1024]	9.51 ± 0.4
AAAACATACAGATATACACACATATATATATATATA [CACACA_site5091]	9.29 ± 0.4
ATATTTAAACGATGGTGTACATATATTACAAGTTGT [XGTACX_site1743]	8.15 ± 0.64
ATATAGATCTACACTGCACACATTTTTAACACTGCT [CACACA_site1882]	9.04 ± 0.5
TATACATATATATATACACACATATATATATATACA [CACACA_site402]	7.66 ± 0.34
ACGCATGTAATTTATACACACATTCTTTTATATTTT [CACACA_site3708]	7.67 ± 0.71
AAATTATTATCGTTAATATGTATATATGTGCCAAGT [TGCATGCA_negctrl_site557]	8.06 ± 0.44
GCATTTTAATAATTATGTACATATATTATTCCTGGT [XGTACX_site3664]	8.08 ± 0.64
TTCCATCAAAAAATGGGTACACATTATAGAAATATT [XGTACX_site8482]	8.02 ± 0.014
